Data on 57 molecules can be found in PubChem BioAssay AID463173 (ICCB-Longwood Screening Facility, Harvard Medical School, 2010).

Among all 52,000 compounds or so, about 4,300 (8.3%) were called active. No stated cut-off is given here; in the data, active means survival mostly below about 52% (no sharp cut-off); inactive means mostly above about 56%. This is one part of the list.

In the experiment the test system is DeltatarO mutant. The experiment is described as follows: S. aureus survival, RN4220 and DeltatarO strains – OD600, teichoic acid synthesis inhibitors, primary screen (AID 463173). Conditions: S. aureus RN4220 wild type/DeltatarO growth, OD600, 18 h, stronger effect = lower value, screened at 18.75 µg/mL (by protocol).
For `Cc1ccc(Cl)cc1N1CCN(S(=O)(=O)c2ccc3c(c2)CC(C)N3C(=O)C2CCC2)CC1` (configuration not stated), the survival was inactive: 107%.

For the molecule `CC(=O)c1ccc(NC(=O)c2sc(-n3nc(C)c(Cc4ccccc4)c3C)nc2C)cc1`, the survival is inactive: 67%.

Regarding `Cc1cccc(NC(=O)Nc2nnc(N(C)Cc3ccccc3)s2)c1`, the survival is inactive: 81%.

As for `COc1ccc(-c2nn3c(-c4ccccc4C)nnc3c3ccccc23)cc1`, the survival was active: 2%.

For `CN(C(=O)Cn1cc(S(=O)(=O)Cc2ccccc2Cl)c2ccccc21)c1ccccc1`, the survival was inactive: 124%.

Consider `CCOC(=O)c1cnc(SCC)[nH]c1=O`, for which the survival was active: 41%.

In the case of `Cn1c(=O)c2c(ncn2CC(=O)Nc2cccc(Cl)c2Cl)n(C)c1=O`, the survival is inactive: 88%.

Consider `CNC(=O)C1CC(=O)N(Cc2ccc(F)cc2)C(=Nc2ccc(F)cc2)S1` (configuration not stated), for which the survival was inactive: 73%.

Take `COCC(=O)N(Cc1cc2cc3c(cc2nc1Cl)OCO3)CC1CCCO1` (configuration not stated): the survival is inactive: 92%.

As for `CCOc1ccccc1NC(=O)N1CCc2c(sc(C)c2CC)C1c1ccccc1` (configuration not stated), the survival was inactive: 92%.

Regarding `COc1ccc(CNc2ncnc3onc(-c4ccc(F)cc4)c23)cc1`, the survival was inactive: 89%.

For `CCCCNC(=O)CCCn1c(=O)c2ccccc2n(CC(=O)Nc2ccccc2OCC)c1=O`, the survival was inactive: 89%.

Take `COc1cc(/C=C(\C#N)c2nc3ccccc3[nH]2)ccc1OCc1cccc(C(F)(F)F)c1`: the survival was inactive: 63%.

In the case of `CCCc1cnc2c(c1SCC(=O)Nc1ccc(C)c(Cl)c1)c(=O)n(C)c(=O)n2C`, the survival was inactive: 77%.

Take `CCOc1ccccc1NC(=O)c1ccc(F)c(S(=O)(=O)NCc2ccc3c(c2)OCO3)c1`: the survival is inactive: 67%.

`COc1cc(-c2nc3nc(C)cc(C)n3c2Nc2ccc(Cl)cc2)ccc1O`: the survival is inactive: 64%.

`COc1ccc2[nH]c(=O)c(CN(Cc3cccs3)S(=O)(=O)c3cccc4nsnc34)cc2c1`: the survival is inactive: 113%.

Consider `COc1ccc(C(=O)Nc2ccc(-c3nnc4n3CCCCC4)cc2)cc1OC`, for which the survival was inactive: 57%.

For the molecule `COc1ccc(Cn2c(C(=O)O)c(CNCc3ccc(C)o3)c3ccc(C)cc32)cc1`, the survival was inactive: 88%.

Turning to `CCOC(=O)Nc1ccc2c(c1)Nc1ccccc1S2`, the survival was inactive: 80%.

As for `O=C(c1cc2ccc3cccnc3c2[nH]1)N1CCN(c2ccccc2)CC1`, the survival is inactive: 75%.

Turning to `CCOc1ccccc1NC(=O)Cn1c(=O)ccc2cc(S(=O)(=O)N3CCCC3)ccc21`, the survival is active: 0%.

For the molecule `CC(=O)N1CCc2nc3sc(C(=O)Nc4ccc(Cl)cc4F)c(N)c3c(C(F)(F)F)c2C1`, the survival is inactive: 75%.

Take `CCOc1ccccc1C(=O)NC1CCN(Cc2nnnn2C2CCCC2)CC1`: the survival was inactive: 95%.

In the case of `CC(Oc1ccccc1)C(=O)Nc1nnc2n1CCS2` (configuration not stated), the survival is inactive: 74%.

As to `CCCn1c2ccccc2c2cnn(CC(=O)N(CCCOC)Cc3ccco3)c(=O)c21`, the survival was inactive: 88%.

`Oc1ccccc1-c1nc(/C=C/c2ccc(F)cc2)nn1-c1ccccc1`: the survival was active: 26%.

For the molecule `CC(=O)c1ccc(N2CCN(S(=O)(=O)c3ccc4c(c3)C(C)(C)C(=O)N4)CC2)cc1`, the survival is inactive: 64%.

On to `COc1cccc(/C=C/C(=O)Nc2ccc3nc(N4CCN(C)CC4)cc(C)c3c2)c1OC`, for which the survival was inactive: 79%.

Turning to `CC(C)c1nc2ccc(C(=O)NC(C)c3ccccc3)cc2o1` (configuration not stated), the survival is inactive: 112%.

As to `Cc1cccc(NC(=O)N2CCCC2C(=O)Nc2ccccc2)c1` (configuration not stated), the survival is inactive: 108%.

With `O=C(NC1CCCC1)c1ccc(CSc2nc3cccnc3n2Cc2ccc(F)cc2)cc1`, the survival is inactive: 63%.

As to `CCOC(=O)c1ccc2ncc3c(-c4ccccc4)nn(-c4ccc(F)c(Cl)c4)c3c2c1`, the survival is inactive: 123%.

On to `O=S1(=O)c2ccccc2N(Cc2cccc(Cl)c2)c2ccccc21`, for which the survival was active: 0%.

On to `COc1cccc(CNC(=O)C2CCN(c3nnc(-n4c(C)ccc4C)s3)CC2)c1OC`, for which the survival is inactive: 96%.

With `CCOc1ccc(-c2nc(CSCC(=O)NCc3ccc(Cl)cc3)c(C)o2)cc1`, the survival is inactive: 95%.

As to `CCN(CC)CCNC(=O)c1ccc2c(=O)n3nc(Nc4ccccc4OC)sc3nc2c1`, the survival was inactive: 124%.

On to `CC(=O)c1cc2c(cc1N/C(=N/S(=O)(=O)c1ccc(C)cc1)c1ccc(F)cc1)OCO2`, for which the survival was inactive: 83%.

`Cc1cc(NC(=O)CNCC2CCCCC2)no1`: the survival was inactive: 108%.

As for `CC(C)CC(c1nnnn1C1CCCC1)N1CCC(C(N)=O)CC1` (configuration not stated), the survival is inactive: 91%.

`Cc1c(C(=O)N2CCN(c3ccccc3)CC2)sc2nc3n(c(=O)c12)CCC3`: the survival is inactive: 84%.

For `CC(C)CCNC(=O)CN1C(=O)CSc2ccc(S(=O)(=O)N3CCCCC3)cc21`, the survival is inactive: 80%.

Take `CCc1ccc(S(=O)(=O)c2nnn3c2nc(NC(C)C)c2sccc23)cc1`: the survival is inactive: 83%.

Take `COc1ccc(CCNC(=O)c2ccc3c(c2)ncn3-c2ccc(C)cc2C)cc1OC`: the survival is inactive: 117%.

Consider `Cc1cc(C(=O)NCc2ccccc2Cl)c2c(C)nn(-c3ccccc3)c2n1`, for which the survival was inactive: 82%.

With `COc1cc(NC(=O)CSc2ncccc2C(=O)OC(C)C)cc(OC)c1`, the survival is inactive: 78%.

Turning to `COc1ccc(CCNC(=O)CS(=O)Cc2nc(-c3ccccc3F)oc2C)cc1OC` (configuration not stated), the survival was inactive: 83%.

`COc1ccc(-c2nc(SCCOc3ccccc3Cl)n3[nH]c(=O)cc3n2)cc1`: the survival is inactive: 78%.

In the case of `CCN1C(C(=O)c2ccccc2)=C(OC(=O)c2ccccc2OC)c2ccccc2S1(=O)=O`, the survival is inactive: 89%.

Regarding `CCOc1ccc(N2CC(NC(=O)c3ccc(S(=O)(=O)N4CCCCC4)cc3)CC2=O)cc1` (configuration not stated), the survival was inactive: 79%.

As to `CCOc1ccccc1NC(=O)c1c(NC(=O)c2cccc(C)c2)sc2c1CCC2`, the survival was inactive: 74%.

With `COc1cc(OC)c(NS(=O)(=O)c2ccc3c(c2)CCCN3C(C)=O)cc1Cl`, the survival is inactive: 83%.

Turning to `CCc1cc2c(cc3c(=O)n(CC(=O)NC4CCC(C)CC4)ncn32)s1` (configuration not stated), the survival is inactive: 91%.

As for `COc1cc2nc(NCc3ccc(C)cc3)n3nc(-c4ccccc4)nc3c2cc1OC`, the survival is inactive: 61%.

As for `Cc1ccc(NC(=O)c2ccc(-n3c(C)nnc3C)cc2)cc1F`, the survival is inactive: 119%.

In the case of `CCOC(=O)c1c(-c2ccc(C)cc2)csc1NC(=O)c1nc(SC(C)C)ncc1Cl`, the survival was inactive: 61%.

`CCc1ccccc1NC(=O)C1CCCN(C(=O)c2cnn(-c3ccccc3)c2-n2cccc2)C1` (configuration not stated): the survival was inactive: 56%.
